From PubChem BioAssay (NCI) come the findings set out here.

As a reminder, the GI50 is the concentration at which growth is held to half of that of the control. In general, TGI refers to the concentration at which net growth stops. Lower therefore signals more potent growth arrest.

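Values below derive from 48-hour exposures of cells grown in 96-well plates, with endpoints linearly interpolated between the two concentrations bracketing the appropriate inhibition level. Abbreviation: GI50, concentration required for 50% inhibition of growth. At the TGI there is no net growth.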 A value given as a limit tells only on which side of the number the result lay.

The assay deals with NCI-H322M lung. Nature of the assay: DTP human tumour cell line panel, 48 h.
With `NC(=O)c1c(NC(=O)c2cccc(C(F)(F)F)c2F)sc2c1CCC(=O)C2`, the GI50 was above 100000 nM and the TGI was above 100 µM.
For `CC(C)(C)c1cc(NC(=O)Nc2ccc(-c3cn4c5c(sc4n3)CCc3c[nH]cc3-5)cc2)no1`, the GI50 is 2140 nM and the TGI is above 50 µM.
Consider `CCCCCc1ccc(S(=O)(=O)Nc2cccc(-c3csc(NCCN4CCN(C)CC4)n3)c2)cc1`, for which the GI50 was 1810 nM and the TGI is 4.13 µM.
